In all, about 43,000 compounds went through this assay and about 200 (0.47%) were called active. Roughly 12% stayed inconclusive and do not appear here. Calls come from the whole dose curve; as a rule, active = well fitted cell-killing curve with a large enough effect; inconclusive = small, poorly fitted or top-dose-only effect, or effect the other way; inactive = flat fitted curve, though single readings scatter. This is one part of the list.
% is set by controls: 0 for no effect and ±100 for the full control effect.

The assay in a line: Cell viability qHTS assay in S16 Pmp22-F2sN cells. Note: nearly all actives have a fitted effect of over 65% in size. The following applies: S16 Pmp22-F2sN Schwann cells viability, CellTiter-Glo, 24 h; series mostly up to 57.5 µM; activity change, negative = cytotoxicity: at the top concentration. Summed up: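 Viability was measured by CellTiter-Glo luminescence (15 min, room temperature). This followed 24 h at 37 °C of compound exposure (23 nL pin transfer) in S16 Pmp22-F2sN Schwann cells, 500-1,000 per well.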
As for `Cc1nn(-c2ccccc2)c2sc(C(=O)Nc3ccccc3Br)cc12`, the “activity change, negative = cytotoxicity” value was inactive: 11.8%.

Regarding `COc1cc(OC)cc(C(=O)Nc2ccc(S(=O)(=O)Nc3ncccn3)cc2)c1`, the “activity change, negative = cytotoxicity” value is inactive: 10.3%.

`O=C(NCc1ccc2c(c1)CCN2C(=O)c1ccc(Cl)cc1)c1cccc(F)c1`: the “activity change, negative = cytotoxicity” value is inactive: 0.178%.

As for `Cc1ccc(NC(=O)CCS(=O)(=O)c2cc3c4c(c2)CCN4C(=O)CC3)c(C)c1`, the “activity change, negative = cytotoxicity” value is inactive: -14.7%.

For the compound `O=C(Nc1nnc(S(=O)(=O)Nc2ccccc2)s1)c1ccccc1Cl`, the “activity change, negative = cytotoxicity” value is inactive: -22.7%.

Consider `CCc1noc(-c2ccc(N3CCCCC3C)c([N+](=O)[O-])c2)n1` (stereo not drawn), for which the “activity change, negative = cytotoxicity” value is inactive: -13.8%.

As to `CCOc1ccccc1NS(=O)(=O)c1ccc(-c2cnc(C3CC3)o2)cc1`, the “activity change, negative = cytotoxicity” value is inactive: -17.5%.

As for `Cc1ccc(-c2csc(=Nc3ccc(F)cc3)n2Cc2ccc3c(c2)OCO3)cc1C`, the “activity change, negative = cytotoxicity” value was inactive: -9.52%.

Turning to `COc1cccc(NC(=O)CC(C)S(=O)(=O)c2ccc3c(c2)NC(=O)CO3)c1` (stereo not drawn), the “activity change, negative = cytotoxicity” value was inactive: 8.47%.

As to `Cc1c(Cl)cccc1NC(=O)c1ncn(-c2ccccc2)n1`, the “activity change, negative = cytotoxicity” value is inactive: -3.35%.

Consider `O=c1c(N2CCc3ccccc3C2)csc2ccccc12`, for which the “activity change, negative = cytotoxicity” value is inactive: 6.66%.

As for `O=C(NCCc1ccccc1)c1ccc2c(c1)N(Cc1ccccc1F)C(=O)c1ccccc1S2=O` (stereo not drawn), the “activity change, negative = cytotoxicity” value was inactive: -1.86%.

As for `Cc1ccc(C2CCN(C(=O)c3cnn(-c4ccc(C)cc4)c3C3CCN(C(=O)OC(C)(C)C)CC3)C2)cc1` (stereo not drawn), the “activity change, negative = cytotoxicity” value was inactive: -1.08%.

Regarding `CC1=C(C(=O)Nc2cccnc2)C(c2ccccc2)n2nc(-c3ccc(O)cc3)nc2N1` (stereo not drawn), the “activity change, negative = cytotoxicity” value was inactive: -28.5%.

Consider `Cc1ccc(-c2ccc(=O)n(CC(=O)Nc3cccc(C#N)c3)n2)cc1`, for which the “activity change, negative = cytotoxicity” value is inactive: -1.7%.

In the case of `CCOc1ccc(-c2nc3c(c(SCC(=O)N4CCCCC4)n2)Cc2ccccc2O3)cc1`, the “activity change, negative = cytotoxicity” value is inactive: 5.76%.

Turning to `CNC(=O)C1CCC(Cn2c(=O)c3sccc3n(CC(=O)NCc3ccc(F)cc3)c2=O)CC1` (stereo not drawn), the “activity change, negative = cytotoxicity” value was inactive: 0.154%.

Consider `O=C(C1CCCN(S(=O)(=O)c2ccc(Br)s2)C1)N1CCN(c2ccccc2)CC1` (stereo not drawn), for which the “activity change, negative = cytotoxicity” value is inactive: -15.4%.

`CCOC(=O)CNS(=O)(=O)c1cc(-c2nnc(Nc3cccc(O)c3)c3ccccc23)ccc1C`: the “activity change, negative = cytotoxicity” value is inactive: 9.63%.

For `Cc1cc(NC(=O)c2cccs2)cc(-c2nc3cc(Cl)ccc3o2)c1O`, the “activity change, negative = cytotoxicity” value was inactive: 16.3%.

Turning to `Cc1ccc(C)c(NC(=O)c2ccc3nc(CCc4ccccc4)oc3c2)c1`, the “activity change, negative = cytotoxicity” value is inactive: 11.1%.

Turning to `O=C(CSc1n[nH]c(-c2ccccc2Cl)n1)N1CCN(c2ccccc2)CC1`, the “activity change, negative = cytotoxicity” value was inactive: 1.27%.

`CCC(=O)NCc1cc(-c2nn(C)c(=O)c3ccccc23)ccc1OC`: the “activity change, negative = cytotoxicity” value was inactive: 0.727%.

Regarding `CC1CCCCN1C(=O)Cn1c(SCC(=O)N(C)c2ccccc2)nc2ccccc21` (stereo not drawn), the “activity change, negative = cytotoxicity” value was inactive: 9.91%.

In the case of `CCn1cc(CNC(=O)c2cc(-c3ccc(C)c(C)c3)nc3ccccc23)c(C)n1`, the “activity change, negative = cytotoxicity” value is inactive: 4.47%.

Regarding `CCOc1ccccc1CNS(=O)(=O)c1ccc(-c2coc(C)n2)cc1`, the “activity change, negative = cytotoxicity” value is inactive: -4.81%.

As for `Cc1cccc(C(c2sc3nc(-c4ccco4)nn3c2O)N2CCN(c3ccccc3)CC2)c1` (stereo not drawn), the “activity change, negative = cytotoxicity” value is inactive: 7.94%.

As for `COC(=O)c1ccccc1NC(=O)c1cc2nc(-c3ccc(OC)cc3)cc(C(F)(F)F)n2n1`, the “activity change, negative = cytotoxicity” value was inactive: 6.52%.

Regarding `Cc1ccc(NC(=O)c2ccc(NC(=O)N3CCSc4nc(C)cc(C)c43)cc2)c(Cl)c1`, the “activity change, negative = cytotoxicity” value is inactive: 6.08%.

`O=C(Cn1nc2c(cc1=O)CCCC2)Nc1ccccc1C(F)(F)F`: the “activity change, negative = cytotoxicity” value was inactive: 15.3%.

Regarding `Cc1ccc(NC(=O)c2ccc(=O)n(CC(=O)Nc3cccc(C)c3)n2)cc1`, the “activity change, negative = cytotoxicity” value was inactive: 6.78%.

On to `Cc1cccc(NC(=O)CCc2c(C)nc3nc(CNC(=O)c4cccc(F)c4)nn3c2C)c1`, for which the “activity change, negative = cytotoxicity” value is inactive: -1.38%.

For `COc1ccc(-c2noc(CSc3nnc(-c4ccncc4)n3-c3ccc(C)cc3)n2)cc1OC`, the “activity change, negative = cytotoxicity” value was inactive: -17.5%.

Consider `O=C(Cn1c(=O)n(Cc2ccc3c(c2)OCO3)c(=O)c2oc3ccccc3c21)Nc1ccc(F)cc1`, for which the “activity change, negative = cytotoxicity” value is inactive: 9.08%.

For `CCOc1ccccc1NC(=O)c1c(NC(=O)c2ccccc2)sc2c1CCCC2`, the “activity change, negative = cytotoxicity” value is inactive: 18.2%.

Turning to `O=C(Cn1cc(SCc2cccc(Cl)c2)c2ccccc21)N1CCCCCC1`, the “activity change, negative = cytotoxicity” value was inactive: -15.7%.

As for `CCc1ccc(Oc2c(C(F)(F)F)oc3c(CN4CCN(C)CC4)c(O)ccc3c2=O)cc1`, the “activity change, negative = cytotoxicity” value is inactive: -2.82%.

For the compound `COc1cccc(C(=O)NCc2nc(-c3ccccc3)no2)c1OC`, the “activity change, negative = cytotoxicity” value was inactive: -3.41%.

As for `CC(C)(C)c1ccc(-c2nc3cc(NC(=O)c4cccc(Br)c4)ccc3o2)cc1`, the “activity change, negative = cytotoxicity” value was inactive: 16.3%.

On to `COc1ccc(-n2ccn(CC(=O)NCCc3ccccc3)c(=O)c2=O)cc1OC`, for which the “activity change, negative = cytotoxicity” value is inactive: -5.08%.

On to `O=C(NCCc1csc2nc(-c3ccc(F)cc3)nn12)c1cccc(C(F)(F)F)c1`, for which the “activity change, negative = cytotoxicity” value is inactive: -2.47%.

Consider `COc1cccc(CNC(=O)Cn2ncc3c4ccccc4n(Cc4ccccc4)c3c2=O)c1`, for which the “activity change, negative = cytotoxicity” value is inactive: 0.345%.

Take `COc1ccccc1CN(Cc1ccco1)c1cnc(S(C)(=O)=O)nc1C(=O)Nc1cc(C)ccc1C`: the “activity change, negative = cytotoxicity” value is inactive: 3.15%.

Take `COc1ccc(C(c2c(O)cc(C)n(Cc3ccco3)c2=O)N2CCCCC2)cc1OC` (stereo not drawn): the “activity change, negative = cytotoxicity” value is inactive: -0.472%.

Take `CC1CCN(C(=O)CSc2nc(-c3ccccc3)no2)CC1`: the “activity change, negative = cytotoxicity” value was inactive: -1.11%.

As for `Cc1c(NS(=O)(=O)c2ccccc2)cc(C(C)C)c(O)c1S(=O)(=O)c1ccc(Cl)cc1`, the “activity change, negative = cytotoxicity” value was inactive: -12.2%.

`COc1cc(C(=O)N2CCC(c3nc4ccccc4o3)CC2)cc(OC)c1OC`: the “activity change, negative = cytotoxicity” value was inactive: -2.63%.

For `CCOc1cccc(CC(=O)N2CCc3c([nH]c4ccccc34)C2c2ccc(Cl)cc2)c1OCC` (stereo not drawn), the “activity change, negative = cytotoxicity” value is inactive: -9.94%.

Source of the values: PubChem BioAssay AID1508642 (National Center for Advancing Translational Sciences (NCATS), 2021).
